The subject of this test is NCI-H322M lung. Kind of test: NCI-60 cell line screen, 48 h.

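Following 48 hours of exposure in 96-well plates, responses at five concentrations were used to interpolate endpoints linearly. GI50: concentration for 50% inhibition of growth. Definition used: TGI = concentration required for complete inhibition of growth.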

The values that follow come from PubChem BioAssay (NCI).

Consider `Cc1ccc(C(=O)CSc2nnc(-c3c[nH]c4ccccc34)n2-c2ccccc2)cc1`, for which the GI50 was 16.3 µM and the TGI was 55.4 µM.
As to `COc1ccc(C(=O)/C=C/c2ccc(OCc3ccccc3)c(OC)c2)cc1OC`, the GI50 was 5.17 µM and the TGI is > 100 µM.
